Source: the supplement of paper PMC11876631
± gives the standard deviation of the averaged measurements. Laboratory Escherichia coli strains with one amino-acid change in an essential protein, pooled on minimal glucose agar with carbenicillin or gentamicin at twice the control MIC (plus kanamycin and chloramphenicol for the plasmids), 48 h. Fold change of barcode share against drug-free plates; higher = less susceptible. Active = above 20 in both replicates (the paper's putatively resistant). '<' = one read or none on drug, '>' = one read or none on a drug-free plate. Shares are relative, so most strains fall below 1 when a few take over. Listed are strains with at least 15 reads on both drug-free plates, and hits; most hits rest on fewer reference reads. Replicate rank correlation about 0.5. Edits are read from barcodes.

B1: pyrC; numbered along this chain (parent)
chain: MTAPSQVLKIRRPDDWHLHLRDGDMLKTVVPYTSEIYGRAIVMPNLAPPVTTVEAAVAYRQRILDAVPAGHDFTPLMTCYLTDSLDPNELERGFNEGVFTAAKLYPANATTNSSHGVTSIDAIMPVLERMEKIGMPLLVHGEVTHADIDIFDREARFIESVMEPLRQRLTALKVVFEHITTKDAADYVRDGNERLAATITPQHLMFNRNHMLVGGVRPHLYCLPILKRNIHQQALRELVASGFNRVFLGTDSAPHARHRKESSCGCAGCFNAPTALGSYATVFEEMNALQHFEAFCSVNGPQFYGLPVNDTFIELVREEQQVAESIALTDDTLVPFLAGETVRWSVKQ

Variants of: B1
Test: barcode share on antibiotic plates over drug-free plates; higher = less susceptible
Conditions: with Escherichia coli (laboratory strain); antibiotic: carbenicillin; 2× MIC (3.1 µg/mL)
Method: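 A pool of E. coli strains, each edited to carry one amino-acid change in an essential protein, was grown for 48 h on minimal glucose agar with or without antibiotic; strain barcodes were sequenced; mean of two replicates.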

Variant | fold change of barcode share
MTAPSQVLKIRRPDDWHLHLRDGDMLKTVVPYTSEIYGRAIVMPNLAPPVTTVEAAVAYRQRILDAVPAGHDFTPLMTCYLTDSLDPNELERGFNEGVFTAAKLYPANATTNSSHGVTSIDAIMPVLERMEKIGMPLLVHGEVTHADIDIFDREARFIESVMEPLRQRLTALKVVFEHITTKDAADYVRDGNERLAATITPQHLMFNRNHMLVGGVRPHLYCLPILKRNIHQQALRELVASGFNRVWLGTDSAPHARHRKESSCGCAGCFNAPTALGSYATVFEEMNALQHFEAFCSVNGPQFYGLPVNDTFIELVREEQQVAESIALTDDTLVPFLAGETVRWSVKQ [F247W] | 0.424 ± 0.035

Same assay, conditions: with Escherichia coli (laboratory strain); antibiotic: gentamicin; 2× MIC (MIC 0.45 µg/mL)

Variant | fold change of barcode share
MTAPSQVLKIRRPDDWHLHLRDGDMLKTVVPYTSEIYGRAIVMPNLAPPVTTVEAAVAYRQRILDAVPAGHDFTPLMTCYLTDSLDPNELERGFNEGVFTAAKLYPANATTNSSHGVTSIDAIMPVLERMEKIGMPLLVHGEVTHADIDIFDREARFIESVMEPLRQRLTALKVVFEHITTKDAADYVRDGNERLAATITPQHLMFNRNHMLVGGVRPHLYCLPILKRNIHQQALRELVASGFNRVWLGTDSAPHARHRKESSCGCAGCFNAPTALGSYATVFEEMNALQHFEAFCSVNGPQFYGLPVNDTFIELVREEQQVAESIALTDDTLVPFLAGETVRWSVKQ [F247W] | 0.00784 ± 0.0043
MTAPSQVLKIRRPDDWHLHLRDGDMLKTVVPYTSEIYGRAIVMPNLAPPVTTVEAAVAYRQRILDAVPAGHDFTPLMTCYLTDSLDPNELERGFNEGVFTAAKLYPANATTNSSHGVTSIDAIMPVAERMEKIGMPLLVHGEVTHADIDIFDREARFIESVMEPLRQRLTALKVVFEHITTKDAADYVRDGNERLAATITPQHLMFNRNHMLVGGVRPHLYCLPILKRNIHQQALRELVASGFNRVFLGTDSAPHARHRKESSCGCAGCFNAPTALGSYATVFEEMNALQHFEAFCSVNGPQFYGLPVNDTFIELVREEQQVAESIALTDDTLVPFLAGETVRWSVKQ [L127A] | < 0.00456
MTAPSQVLKIRRPDDWHLHLRDGDMLKTVVPYTSEIYGRAIVMPNLAPPVTTVEAAVAYRQRILDAVPAGHDFTPLMTCYLTDSLDPNELERGFNEGVFTAAKLYPANATTNSSHGVTSIDAIMPVQERMEKIGMPLLVHGEVTHADIDIFDREARFIESVMEPLRQRLTALKVVFEHITTKDAADYVRDGNERLAATITPQHLMFNRNHMLVGGVRPHLYCLPILKRNIHQQALRELVASGFNRVFLGTDSAPHARHRKESSCGCAGCFNAPTALGSYATVFEEMNALQHFEAFCSVNGPQFYGLPVNDTFIELVREEQQVAESIALTDDTLVPFLAGETVRWSVKQ [L127Q] | 0.0272 ± 0.02
MTAPSQVLKIRRPDDWHLHLRDGDMLKTVVPYTSEIYGRAIVMPNLAPPVTTVEAAVAYRQRILDAVPAGHDFTPLMTCYLTDSLDPNELERGFNEGVFTAAKLYPANATTNSSHGVTSIDAIMPVWERMEKIGMPLLVHGEVTHADIDIFDREARFIESVMEPLRQRLTALKVVFEHITTKDAADYVRDGNERLAATITPQHLMFNRNHMLVGGVRPHLYCLPILKRNIHQQALRELVASGFNRVFLGTDSAPHARHRKESSCGCAGCFNAPTALGSYATVFEEMNALQHFEAFCSVNGPQFYGLPVNDTFIELVREEQQVAESIALTDDTLVPFLAGETVRWSVKQ [L127W] | 0.00982 ± 0.0034
MTAPSQVLKIRRPDDWHLHLRDGDMLKTVVPYTSEIYGRAIVMPNLAPPVTTVEAAVAYRQRILDAVPAGHDFTPLMTCYLTDSLDPNELERGFNEGVFTAAKLYPANATTNSSHGVTSIDAIMPVLERMEKIGMPLLVHGEVTHADIDIFDREARFIESVMEPLRQRLTALKVVAEHITTKDAADYVRDGNERLAATITPQHLMFNRNHMLVGGVRPHLYCLPILKRNIHQQALRELVASGFNRVFLGTDSAPHARHRKESSCGCAGCFNAPTALGSYATVFEEMNALQHFEAFCSVNGPQFYGLPVNDTFIELVREEQQVAESIALTDDTLVPFLAGETVRWSVKQ [F176A] | < 0.0115
MTAPSQVLKIRRPDDWHLHLRDGDMLKTVVPYTSEIYGRAIVMPNLAPPVTTVEAAVAYRQRILDAVPAGHDFTPLMTCYLTDSLDPNELERGFNEGVFTAAKLYPANATTNSSHGVTSIDAIMPVLERMEKIGMPLLVHGEVTHADIDIFDREARFIESVMEPLRQRLTALKVVDEHITTKDAADYVRDGNERLAATITPQHLMFNRNHMLVGGVRPHLYCLPILKRNIHQQALRELVASGFNRVFLGTDSAPHARHRKESSCGCAGCFNAPTALGSYATVFEEMNALQHFEAFCSVNGPQFYGLPVNDTFIELVREEQQVAESIALTDDTLVPFLAGETVRWSVKQ [F176D] | < 0.0213
